In the supplement of paper PMC10369915:
Some of the results follow. Rule as the data show it: active = 3.2 or more and inactive = the rest. The signal is at background level for most entries.

Key:
Assay in all cases: enrichment score (SH2-bound / input frequency) (ratio); bacterial display of known human phosphotyrosine sites (pTyr-Var adds point mutants) read by sequencing; higher = stronger binding; tyrosines were phosphorylated by kinases first
Conditions in all cases: peptide library: pTyr-Var
[1] = target: SHP2 C-SH2 domain E139D
[2] = target: SHP2 C-SH2 domain wild-type
[3] = target: SHP2 N-SH2 domain L43F
[4] = target: SHP2 N-SH2 domain T42A
[5] = target: SHP2 N-SH2 domain T52S
[6] = target: SHP2 N-SH2 domain wild-type

Measured: enrichment score
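Also: displayed peptides selected on beads carrying the immobilized SH2 domain, with library peptides lacking any tyrosine serving as negative controls.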

ENEGTYVCIAT [ADAMTSL3_Y1365]
inactive: [1] 0.943 | [2] 1.5 | [3] 1.26 | [4] 0.93 | [5] 0.653 | [6] 1.67

NTPNAYLRVNV [ADD2_Y440_T439A]
inactive: [1] 0.936 | [2] 1.38 | [3] 1.28 | [4] 2.93 | [5] 1.35 | [6] 0.951

SPQAHYRLSAF [ADAMTS9_Y100_S96P]
inactive: [1] 0.825 | [2] 0.699 | [3] 0.653 | [4] 0.701 | [5] 0.697 | [6] 0.702

GVMLLYFGRFN [ADGRD1_Y85_T82M_YF]
inactive: [1] 1.64 | [2] 1.04 | [3] 1.54 | [4] 1.64 | [5] 1.78 | [6] 1.19

AGITAYQSCLQ [ADGRA2_Y377]
inactive: [1] 0.845 | [2] 1.08 | [3] 0.745 | [4] 0.813 | [5] 0.594 | [6] 1.12

TIQDAYMHITS [ADCY10_Y318_A313T]
inactive: [1] 0.972 | [2] 0.624 | [3] 0.787 | [4] 0.679 | [5] 0.801 | [6] 0.778

LLSISYVGCSL [ADGRD1_Y571_S567L]
inactive: [1] 1.79 | [2] 1.58 | [3] 1.77 | [4] 0.939 | [5] 2.05 | [6] 1.85

GVTLLYYGRYN [ADGRD1_Y85]
inactive: [1] 1.62 | [2] 1.13 | [3] 1.45 | [4] 1.23 | [5] 1.47 | [6] 1.54

EGLKVYVNGTL [ADGRD1_Y183]
inactive: [1] 0.679 | [2] 0.75 | [3] 0.651 | [4] 0.726 | [5] 0.77 | [6] 0.924

CSHMFYGKQCC [ADAMTS16_Y1211_K1209M]
inactive: [1] 1.27 | [2] 1.58 | [3] 1.33 | [4] 1.43 | [5] 1.48 | [6] 1.52

LSSISYVGCSL [ADGRD1_Y571]
inactive: [1] 0.771 | [2] 0.609 | [3] 0.817 | [4] 0.777 | [5] 0.695 | [6] 0.632

ENEGTYVCIAA [ADAMTSL3_Y1365_T1370A]
inactive: [1] 0.831 | [2] 1.03 | [3] 1.13 | [4] 0.839 | [5] 0.92 | [6] 1.33

RPASQYPHQVP [ADAM12_Y895_P893S]
inactive: [1] 0.758 | [2] 0.639 | [3] 0.571 | [4] 0.564 | [5] 0.417 | [6] 0.741

GVTLLCYGRYN [ADGRD1_Y85_Y85C]
inactive: [1] 0.748 | [2] 0.812 | [3] 0.722 | [4] 0.878 | [5] 0.559 | [6] 1.15

KANEFYPVVII [ADAMTS18_Y765_L769I_YF]
inactive: [1] 0.317 | [2] 0.41 | [3] 0.608 | [4] 0.239 | [5] 0.346 | [6] 0.378

GVTLLCFGRFN [ADGRD1_Y85_Y85C_YF]
inactive: [1] 1.34 | [2] 1.36 | [3] 1.02 | [4] 0.913 | [5] 1.08 | [6] 1.12

GVMLLYYGRYN [ADGRD1_Y85_T82M]
inactive: [1] 2.03 | [2] 1.86 | [3] 2.01 | [4] 1.73 | [5] 2.15 | [6] 1.56

KGLKVYVNGTL [ADGRD1_Y183_E178K]
inactive: [1] 1.36 | [2] 1.35 | [3] 1.43 | [4] 1.19 | [5] 1.19 | [6] 1.37

KANEYYPVVLI [ADAMTS18_Y765]
inactive: [1] 0.613 | [2] 0.533 | [3] 0.773 | [4] 0.646 | [5] 0.966 | [6] 0.662
